From the supplement of paper PMC12217912
This is one part of the list. The full chains were built here from the parent and the listed change. Inactive controls read about 0.05.

B1: TEV protease; numbered along this chain (parent)
chain: MGESLFKGPRDYNPISSSICHLTNESDGHTTSLYGIGFGPFIITNKHLFRRNNGTLVVQSLHGVFKVKDTTTLQQHLVDGRDMIIIRMPKDFPPFPQKLKFREPQREERICLVTTNFQTKSMSSMVSDTSCTFPSGDGIFWKHWIQTKDGQCGSPLVSTRDGFIVGIHSASNFTNTNNYFTSVPKNFMELLTNQEAQQWVSGWRLNADSVLWGGHKVFMVKPEEPFQPVKEATQL

Variants of: B1
Assay: raw area under fraction-flipped curve 0-4 h after induction (AUC4h, not background-subtracted), DNA-recorder readout of cleavage of the substrate (dimensionless); higher = more cleavage of the substrate by the protease variant
Conditions: temperature: 34 °C; time window: 0-4 h after rhamnose induction
Experimental: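 In vivo DNA recorder in E. coli TOP10(DE3) ΔrhaA at 34 °C. Each TEVp single-site mutant (parent TEVp 0) is paired with a single-site variant of the 7-mer TEVs (canonical ENLYFQ|S). The substrate sits between flexible linkers in a Bxb1-sfGFP-TEVs-SsrA fusion, so cleavage stabilises Bxb1 and speeds flipping of a recombination array, read by NGS. The value is the raw area under the fraction-flipped curve over 0-4 h after rhamnose induction (AUC4h), with ≥20 reads per time point. It is not background-subtracted; inactive controls average about 0.047.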
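Further: Bxb1 expression induced with 0.2% (w/v) L-rhamnose at OD600 near 0.5, cultures sampled hourly, flipped fraction per protease–substrate barcode pair counted by paired-end Illumina sequencing.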

Variant | area with substrate ENLYFQC | area with substrate ENLYFQD | area with substrate ENLYFQF | area with substrate ENLYFQG | area with substrate ENLYFQH | area with substrate ENLYFQI | area with substrate ENLYFQK | area with substrate ENLYFQL | area with substrate ENLYFQM | area with substrate ENLYFQN | area with substrate ENLYFQP | area with substrate ENLYFQR | area with substrate ENLYFQS | area with substrate ENLYFQT | area with substrate ENLYFQV | area with substrate ENLYFQW | area with substrate ENLYFQY | area with substrate ENLYFQQ | area with substrate ENLYFQE
N24E | 0.086 | 0.0647 | 0.0683 | 0.0622 | 0.0732 | 0.0675 | 0.0651 | 0.0647 | 0.0923 | 0.0587 | 0.0674 | 0.0619 | 0.0859 | 0.0689 | 0.0551 | 0.0679 | 0.0793 |  | 
E25R | 0.12 | 0.0777 |  | 0.106 |  | 0.0569 | 0.0636 | 0.0516 | 0.0897 | 0.0821 | 0.0539 | 0.0538 | 0.107 | 0.0681 | 0.0687 | 0.0971 | 0.135 | 0.105 | 
S26L | 0.0758 |  | 0.082 | 0.0587 |  | 0.0538 | 0.0546 | 0.0626 |  | 0.0443 | 0.0668 | 0.0556 | 0.0732 | 0.0523 | 0.0543 | 0.0731 |  |  | 
S26N | 0.0759 | 0.0568 | 0.0691 | 0.0664 | 0.0722 | 0.0592 | 0.0616 | 0.0618 | 0.0826 | 0.0506 |  | 0.0653 | 0.084 | 0.0333 | 0.0668 | 0.065 |  |  | 
S26P | 0.0643 | 0.0363 | 0.0528 |  |  | 0.0494 | 0.0474 |  |  |  | 0.0409 | 0.0561 | 0.0667 |  | 0.092 | 0.049 | 0.0584 | 0.0633 | 
D27W | 0.0765 | 0.0523 | 0.021 | 0.0968 | 0.0855 | 0.0558 |  | 0.0594 | 0.0715 | 0.0768 | 0.0476 | 0.0605 | 0.0903 | 0.0613 | 0.057 | 0.066 | 0.0708 | 0.0651 | 0.0605
T31A | 0.122 |  | 0.106 |  | 0.0934 | 0.0535 | 0.0551 | 0.102 |  |  |  | 0.0441 | 0.103 |  |  | 0.0472 |  |  | 
I36M | 0.132 | 0.0671 | 0.0454 | 0.0797 | 0.0813 | 0.0571 | 0.0641 | 0.0672 | 0.0953 |  |  | 0.0674 | 0.0987 |  |  |  |  | 0.0726 | 0.0536
I36S | 0.0731 | 0.0611 | 0.0665 | 0.0546 | 0.05 | 0.0816 | 0.0509 | 0.044 | 0.0582 | 0.0546 |  | 0.0504 | 0.0678 |  | 0.0463 |  | 0.0318 | 0.0348 | 
I36T | 0.0805 |  |  | 0.0837 |  | 0.056 | 0.0525 | 0.0621 |  | 0.0838 |  | 0.0458 | 0.0887 | 0.0604 |  | 0.054 | 0.0591 |  | 
F38C | 0.104 | 0.0677 | 0.0308 | 0.0902 | 0.0794 | 0.0494 |  |  | 0.0873 |  |  | 0.0596 | 0.0915 | 0.05 |  | 0.0574 | 0.0741 |  | 
F38I | 0.0872 | 0.0651 |  | 0.105 |  | 0.0632 | 0.0344 |  | 0.0567 | 0.0733 |  | 0.0585 | 0.0856 | 0.0986 | 0.056 | 0.0504 |  |  | 0.0236
I43L | 0.121 | 0.0526 |  |  |  |  | 0.0597 |  | 0.0887 | 0.0772 | 0.058 | 0.0602 | 0.101 | 0.0726 |  | 0.0674 | 0.105 | 0.0764 | 
I43N | 0.0447 | 0.0581 | 0.0478 |  | 0.0784 | 0.0414 | 0.0439 | 0.0501 | 0.039 |  | 0.0567 | 0.0477 | 0.0471 | 0.0397 |  | 0.0485 |  |  | 
I43S | 0.0556 | 0.0532 |  | 0.0489 | 0.0534 | 0.0391 | 0.0716 | 0.0492 | 0.0663 | 0.0495 | 0.0261 | 0.044 | 0.056 | 0.0431 |  | 0.0548 | 0.0463 | 0.0511 | 0.0532
H47C | 0.0404 | 0.0554 |  | 0.0681 |  |  |  | 0.0596 |  | 0.0597 | 0.0651 | 0.0382 | 0.0616 |  | 0.0661 |  | 0.0923 | 0.0564 | 0.079
F49I | 0.0576 |  | 0.0888 | 0.0616 |  | 0.0291 | 0.0647 | 0.0543 | 0.0597 | 0.0533 | 0.0658 | 0.0563 | 0.064 | 0.061 |  | 0.0574 |  | 0.0604 | 
R50P | 0.0993 | 0.0578 |  | 0.0618 | 0.052 | 0.0647 | 0.0755 | 0.0627 | 0.0747 | 0.0778 | 0.0657 | 0.0776 | 0.0885 | 0.0645 | 0.0611 | 0.0581 | 0.0857 | 0.0763 | 
N53M | 0.102 | 0.0641 | 0.0592 | 0.0904 | 0.0762 | 0.0708 | 0.06 | 0.0556 | 0.121 | 0.0835 |  | 0.0776 | 0.0861 | 0.0603 | 0.0611 | 0.0631 | 0.0485 | 0.0855 | 
N53S | 0.115 |  |  |  | 0.0595 | 0.0547 |  | 0.0573 | 0.121 | 0.0911 | 0.0587 | 0.0566 | 0.0988 | 0.0599 | 0.0625 | 0.0885 | 0.0425 | 0.0653 | 
S60K | 0.0976 | 0.0624 | 0.0582 |  | 0.0648 | 0.0528 | 0.0608 | 0.0477 | 0.0586 |  | 0.0469 | 0.0586 | 0.0868 | 0.0459 | 0.0513 | 0.0523 | 0.0738 |  | 
H62A | 0.137 |  |  | 0.101 |  | 0.0361 |  | 0.0754 | 0.0997 | 0.076 | 0.0604 | 0.0557 | 0.101 | 0.0644 | 0.0802 |  | 0.08 |  | 
T70E | 0.052 |  | 0.0602 |  | 0.0892 |  | 0.0424 | 0.0528 | 0.0448 | 0.063 |  | 0.0565 | 0.0734 |  |  | 0.0472 |  | 0.0507 | 0.0591
Q75R | 0.0615 | 0.0591 | 0.0456 | 0.0736 | 0.0502 | 0.0634 |  | 0.0616 |  |  |  | 0.0547 | 0.0588 | 0.0669 | 0.0595 | 0.0508 |  |  | 
V78W | 0.0855 |  |  | 0.0667 | 0.0694 |  | 0.0554 | 0.0564 | 0.0609 | 0.0668 |  | 0.0594 | 0.0729 | 0.0554 | 0.0479 | 0.0516 | 0.0645 | 0.0476 | 0.0525
